Tests used:
[1] = biological target: T1, HER2 (on HER2高表达细胞株 N87 / BT474) (UniProt P04626); assay: cell-based or functional assay
[2] = biological target: T1, HER2 (on HER2高表达细胞株 N87 / BT474); assay: cell-based or functional assay; remark: listed apart in the source

- 最大抑制率(%), N87细胞增殖 (CCK8) [1]: 61.9%
- IC50, N87细胞增殖抑制 (CCK8) [2]: 0.29 nM
B1: PerH-61246 (bispecific antibody, human IgG1, kappa)
heavy: EVQLVESGGGLVQPGGSLRLSCAASGFTFTDYTMDWVRQAPGKGLEWVADVNPNSGGSIYNQRFKGRFTLSVDRSKNTLYLQMNSLRAEDTAVYYCARNLGPSFYFDYWGQGTLVTVSS[human IgG1 constant region cut from this listing]GGGGSGGGGSGGGGSGGGGSGGGGSGGGGSQVQLVQSGAEVKKPGASVKVSCKGSGYTFTDYAIHWVRQAPGQSLEWIGVFSIYYENINYNQKFKGRATMTVDKSTSTAYMELRSLRSDDTAVYYCARRDGGTINYWGQGTLVTVSSGGGGSGGGGSGGGGSGGGGSDVVMTQSPLSLPVTLGQPASISCRSSQSLVHSNGNTYLHWYQQRPGQSPRLLIYKVSNRFSGVPDRFSGSGSGTDFTLKISRVEAEDVGVYFCSQSTHIPWTFGQGTKVEIK
light: DIQMTQSPSSLSASVGDRVTITCKASQDVSIGVAWYQQKPGKAPKLLIYSASYRYTGVPSRFSGSGSGTDFTLTISSLQPEDFATYYCQQYYIYPYTFGQGTKVEIKRTVAAPSVFIFPPSDEQLKSGTASVVCLLNNFYPREAKVQWKVDNALQSGNSQESVTEQDSKDSTYSLSSTLTLSKADYEKHKVYACEVTHQGLSSPVTKSFNRGEC
